Drawing on PubChem BioAssay AID1745853 (National Center for Advancing Translational Sciences (NCATS), 2022), this text covers activity change, negative = inhibition for 28 compounds.

The list shows a part of the results. Further columns of the screen follow, without active or inactive calls.

What all share (assay): Primary Screen for Target Class Profiling of Small Molecule Inhibitors of Methyltransferases
Test [1] has as its target Glycine N-methyltransferase (Homo sapiens) (UniProt Q14749). The note with it: purified enzyme, MTase-Glo SAH luminescence; measured here: GNMT inhibition; at 40 µM; stronger effect = lower value. Put shortly: (§1)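 Each enzyme was reacted with SAM and its substrate, with compounds tested once at 40 uM; SAH formed was read by MTase-Glo luminescence.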
Test [2] has as its target Guanidinoacetate N-methyltransferase (Homo sapiens) (UniProt Q14353). The note with it: purified enzyme, MTase-Glo SAH luminescence; measured here: GAMT inhibition; at 40 µM; stronger effect = lower value. The gist of the method: as §1
Test [3] deals with Histamine N-methyltransferase (Homo sapiens) (UniProt P50135). The note with it: purified enzyme, MTase-Glo SAH luminescence; measured here: HNMT inhibition; at 40 µM; stronger effect = lower value. Put shortly: as §1
The target of test [4] is Nicotinamide N-methyltransferase (Homo sapiens) (UniProt P40261). The conditions noted are these: purified enzyme, MTase-Glo SAH luminescence; measured here: NNMT inhibition; at 40 µM; stronger effect = lower value. The gist of the method: as §1
For test [5], the target named is Phenylethanolamine N-methyltransferase (Homo sapiens) (UniProt P11086). The note with it: purified enzyme, MTase-Glo SAH luminescence; measured here: PNMT inhibition; at 40 µM; stronger effect = lower value. The gist of the method:
as §1
% is set by controls: 0 for no effect and ±100 for the full control effect.

Regarding `C[C@H](O)C(O)(C(=O)OCc1ccccc1NC(=O)CCC(N)C(=O)O)[C@H](C)O` (stereo partly drawn), the activity change, negative = inhibition is 0% in test [1]; 9.86% in test [2]; 6.47% in test [3]; -2.21% in test [4]; 7.12% in test [5].
Taken in the same sequence, the figures for `O=C(NCCN1CCCC1)c1cc(-c2ccc(CN3CCOCC3)cc2)nc2ccc(F)cc12` were -1.01%, -0.218%, -20.7%, -4.89% and 3.74%.
Taken in the same sequence, the figures for `Nc1nc(Nc2ccc(S(N)(=O)=O)cc2)nn1C(=O)c1c(F)cccc1F` were -22.7%, -8.01%, -4.66%, -24.3% and -0.208%.
Taken in the same sequence, the figures for `Cc1nc([C@H]2CCN(Cc3cccc(OC(F)(F)F)c3)C[C@H]2NC(=O)C2CC2)n[nH]1` were -2.75%, 0.104%, 1.79%, 3.31% and 2.53%.
For `CO[C@@H](C)Cn1c(=O)n(C)c2cnc3ccc(-c4cncc(C(C)(C)O)c4)cc3c21`, the activity change, negative = inhibition in test [1] was -29.7%; in test [2], -13.7%; in test [3], -26.8%; in test [4], -28.9%; in test [5], -13.3%.
On to `Cc1ccc(C)c(OCCn2cc(C(=O)O)c3ccccc32)c1`, for which the activity change, negative = inhibition is -8.7% in test [1]; -5.49% in test [2]; 4.53% in test [3]; -20.9% in test [4]; -1.2% in test [5].
Taken in the same sequence, the figures for `CC1CCCCN1S(=O)(=O)c1ccc(N2CCCC2=O)cc1` (stereo not drawn) were 1.07%, -1.54%, 0.432%, -16.7% and -4.48%.
Taken in the same sequence, the figures for `COc1ccccc1CNC(=O)C1(C)Cn2cnc(C(=O)NC3CCCCC3)c2C(=O)N1C1CC1` (stereo not drawn) were 4.81%, 0.047%, 15.2%, 1.2% and 9.83%.
Taken in the same sequence, the figures for `NC(=O)CCCSc1nc(N)nc(-c2c(Cl)cc3c4c(cccc24)COC3)n1` were 0.639%, 3.28%, 5.27%, -12.8% and -0.334%.
With `CC1(C(=O)NC2CCCCCC2)Cn2c(cc3sccc32)C(=O)N1Cc1ccccc1Cl` (stereo not drawn), the activity change, negative = inhibition in test [1] was 1.31%; in test [2], 0%; in test [3] it was 2.31%; in test [4], 4.29%; in test [5], -3.47%.
Taken in the same sequence, the figures for `COc1ccccc1-c1ccc(C(=O)N2CCC(N[S+](=O)([O-])c3ccccc3)CC2)cc1` were -5.08%, -8.37%, -3.95%, -20.5% and -15.3%.
Taken in the same sequence, the figures for `Cc1noc(C)c1-c1cc2cc(CN(C)C)oc2c(N2CCOCC2)n1` were -7.02%, -3.56%, -8.24%, -6.95% and -4.3%.
Taken in the same sequence, the figures for `COc1ccc(OC)c2c1cc1n2CC(C)(C(=O)NC2CCCC2)N(Cc2ccccc2F)C1=O` (stereo not drawn) were 3.21%, 0%, 3.53%, 0.074% and -2.37%.
Regarding `CC(=O)O[C@@H]1[C@@H](OC(=O)/C=C/c2ccccc2)[C@@H](OC(C)=O)[C@H](O[C@H]2[C@@H]3C=CO[C@@H](O[C@@H]4O[C@H](CO)[C@@H](O)[C@H](O)[C@H]4O)[C@@H]3[C@@]3(CO)O[C@@H]23)O[C@H]1C`, the activity change, negative = inhibition was 0% in test [1]; 4.89% in test [2]; 8% in test [3]; -6.37% in test [4]; 7.18% in test [5].
As to `CCOC(=O)c1cc2n(n1)CC(C)(C(=O)NC1CCCCCC1)N(c1cc(C)cc(C)c1)C2=O` (stereo not drawn), the activity change, negative = inhibition was 4.89% in test [1]; 0.641% in test [2]; -2.57% in test [3]; 4.97% in test [4]; 2.8% in test [5].
With `CCCn1c(=O)c2ccc(C(=O)NC3CCCC3)cc2n2c(SCC(=O)Nc3cccc(C)c3)nnc12`, the activity change, negative = inhibition in test [1] was determined as 8.01%; in test [2], 0.064%; in test [3], 11.6%; in test [4], 1.32%; in test [5], 8.63%.
Taken in the same sequence, the figures for `c1ccc(-c2cnn3cc(-c4ccc(OCCN5CCOCC5)cc4)cnc23)cc1` were -2.89%, 6.9%, 1.89%, -8.24% and 3.42%.
In the case of `CCCn1c(=O)c2ccc(C(=O)NC(C)C)cc2n2c(=O)n(CC(=O)c3cccc(Cl)c3)nc12`, the activity change, negative = inhibition in test [1] was 4.95%; in test [2] it was 3.22%; in test [3], 11.3%; in test [4], -5.44%; in test [5] it was 7.04%.
Taken in the same sequence, the figures for `O=C(O)CCC/C=C\C[C@@H]1[C@@H](/C=C/[C@H](O)C2Cc3ccccc3C2)[C@@H](F)C[C@@H]1O` were -8.89%, 6.33%, -0.066%, -4.29% and 7.73%.
Taken in the same sequence, the figures for `COc1ccc(CNCc2cccc3ccccc23)cc1` were 1.15%, 2.43%, -0.298%, -9.6% and 2.01%.
Take `NC(=O)[C@@H](CCC(F)(F)F)N(Cc1ccc(-c2ncon2)cc1F)S(=O)(=O)c1ccc(Cl)cc1`: the results for the activity change, negative = inhibition in test [2], in test [4] and in test [5] were 3.5%, -21.9% and -5.6%, respectively.
For the compound `COC[C@@H]1CN(C(=O)CC2=CCCCC2)C[C@H]1c1ccncc1`, the activity change, negative = inhibition in test [1] is -5.73%; in test [2], -12.4%; in test [3] it was -3.12%; in test [4], -11.5%; in test [5], -9.44%.
Taken in the same sequence, the figures for `CC1(C(=O)NC2CCCCCC2)Cn2c(nc3ccccc32)C(=O)N1Cc1cccs1` (stereo not drawn) were -4.54%, 1.33%, 5.04%, -12.9% and -1.26%.
With `COc1ccccc1CN1C(=O)c2nc3ccccc3n2CC1(C)C(=O)NC1CCCCC1C` (stereo not drawn), the activity change, negative = inhibition is 2.03% in test [1]; 0% in test [2]; 2.73% in test [3]; 1% in test [4]; -0.389% in test [5].
In the case of `O=C(Cn1c(=O)oc2ccccc21)N1CCCC(Cc2noc(-c3ccccc3)n2)C1` (stereo not drawn), the activity change, negative = inhibition is -3.01% in test [1]; -0.821% in test [2]; -0.953% in test [3]; -13.2% in test [4]; -2.52% in test [5].
As for `CCOc1ccc(CNC(=O)c2cc3n(n2)CC(C)(C(=O)NCc2ccc(F)cc2)N(C)C3=O)cc1` (stereo not drawn), the activity change, negative = inhibition in test [1] was -1.64%; in test [2], -4.04%; in test [3] it was -11.6%; in test [4], 7.75%; in test [5], -1.53%.
Taken in the same sequence, the figures for `CN(CC1(C)CCCO1)S(=O)(=O)c1ccc(Cl)c(S(N)(=O)=O)c1` (stereo not drawn) were -0.191%, 2.91%, 3.73%, -11.3% and -1.87%.
Taken in the same sequence, the figures for `C[C@@H](O)[C@H]1C(=O)N2C(C(=O)O)=C(SCCN=CN)C[C@H]12` were -19.6%, 13.4%, 1.93%, 0.634% and 9.41%.
